We go through 90 sequences from the supplement of paper PMC11417369.

± gives the standard deviation of the averaged measurements. The list shows a part of the results.

This assay concerns PfAP2-EXP AP2 domain (GST-tagged). In words: gcPBM binding intensity (ln(normalized median fluorescence intensity)); higher = stronger DNA binding. An outline of the steps: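 After 1 h on an Agilent 4 × 180k array of primer-extended double-stranded 36-bp intergenic genomic probes and negative controls, bound GST-tagged P. falciparum DNA-binding domains were detected with Alexa488 anti-GST antibody and scanned at 488 nm. The domains had been expressed in E. coli, and binding took place in 1× PBS with 1% milk, 0.2 mg/ml BSA, 0.5% salmon testes DNA and 0.03% Triton X-100. Binding intensity is the highest Masliner-normalised natural-log median intensity across replicate spots of either probe orientation.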
As to “CATGCTACATCTTATTGTACTTATCTAATGTTAGTA [XGTACX_site1863]”, the “gcPBM binding intensity (ln)” value was 8.62 ± 0.38.
To “AGGCAATATTATATATATATATATATATATATATAT [CACACA_negctrl_site826]” belongs 9.88 ± 0.54.
Then “TCTTTTTACACCTCTTACATAAAACAAAATAAGGGG [XGTACX_negctrl_site12]”, with 9.1 ± 0.13; and “TATACATGTTATGTACATCTAATCACACGTGCAATA [CACACA_negctrl_site1267]”, with 8.86 ± 0.26.
Then “ATATATATAAAACACACACACACATGGTTTAAAACT [CACACA_site4219]”, with 8.77 ± 0.38; and “TGTATGTTTGGGTGCACACATAAATATTATATATAG [CACACA_site3397]”, with 9.83 ± 1.3.
“TTGTAAATTTACATTTGTACATAAATATATTAATAT [XGTACX_site3969]”: the “gcPBM binding intensity (ln)” value was determined as 8.67 ± 0.45.
To “ATGAATCCTTAATATGAACACACAAATATATTACAC [CACACA_site7943]” belongs 8.62 ± 0.39.
To “TCCTTATTTATATAATGTACTTTTTTTTTTCATTTT [XGTACX_site4275]” belongs 8.71 ± 0.46.
Then “TTTTTTATTTATCCTATATATTACTAAATGAAGAAC [GTGCAC_negctrl_site333]”, with 8.43 ± 0.25.
On to “TTATTTCAAAGTAAATCAGTAAATATTTGTTTTCTT [CACACA_negctrl_site1572]”, for which the “gcPBM binding intensity (ln)” value is 8.21 ± 0.47.
Take “TACAAGTATAAATAAGCACACATGTGGATATGTACA [CACACA_site4229]”: the “gcPBM binding intensity (ln)” value turned out to be 8.96 ± 0.36.
Then “AAAATATAAAATAATGCACACATAAACAAAAAATCA [CACACA_site8382]”, with 8.77 ± 0.26.
On to “GATAAAATAGGACCATATTCTTTAAAACGATAAAAT [XGTACX_negctrl_site405]”, for which the “gcPBM binding intensity (ln)” value stood at 8.56 ± 0.39.
To “ATATATATATATTTATGTACATATACATAATGTATA [XGTACX_site6387]” belongs 9.74 ± 0.28; to “TAAAGTTAAAAATTATGTACATATATATTGTATATT [XGTACX_site5528]”, 8.24 ± 0.014; to “TAAGAAGTATTTTCCTGTACATATTTTATATGTATG [XGTACX_site4658]”, 8.28 ± 0.26.
Turning to “TTATTTTATATATCACGTACATAGTTGTCTTCTTTT [XGTACX_site2906]”, the “gcPBM binding intensity (ln)” value is 8.73 ± 0.44.
To “ATATATTTATAATAGGTGCATATGTTTTATTTTTCC [GTGCAC_site9849]” belongs 8.79 ± 0.19; to “TATATATATTAGTGTGCACACTTTTTATTTTTATCC [CACACA_site8506]”, 9.11 ± 0.042; to “TGTTCTATTCTATTATTATTTACAAATTATAAATAA [GTGCAC_negctrl_site232]”, 8.6 ± 0.4.
With “ATATGTGTGTGTATTTGTACCCAATTTTTATATATA [XGTACX_site4948]”, the “gcPBM binding intensity (ln)” value came to 9.19 ± 0.74.
To “AAAAAAAAAAAAAAAAAAAAAATACATATATATATA [CACACA_negctrl_site290]” belongs 9.79 ± 0.18.
Then AAAGAATTATATAAGGTGCACGAATGTTTCTTTAAT, with 9.115 ± 0.064; and “TGTAATAAATAGTACACACACACATATATATATATT [CACACA_site1388]”, with 8.73 ± 0.38; and “AGATATGTTTTTAATTGTACATAAATACACAAATAT [XGTACX_site5981]”, with 8.53 ± 0.33.
To “TATAAATATATTTATACACACATTAGTGTATACATG [CACACA_site7397]” belongs 8.5 ± 0.44; to “TCGTGTTAAATTTTTACACACAAACTTGCAATAATT [CACACA_site3824]”, 8.58 ± 0.31; to “AACTATAACTAAAAAAATCACATAAAATATTTTATT [TGCATGCA_negctrl_site363]”, 7.99 ± 0.42.
Take “AGGTGAAAAATATATAATAATGTAACAAAAAAAAAT [XGTACX_negctrl_site394]”: the “gcPBM binding intensity (ln)” value was determined as 8.9 ± 0.46.
Then “TATATCTTATTTAACACACACAAAGAAAATAGAAAA [CACACA_site3732]”, with 8.76 ± 0.51.
To “AACAATAAAAATAATTGTACAAGTTTAAAAAAAATT [XGTACX_site1987]” belongs 8.64 ± 0.38; to “TCTTTAAATTTCTCAACACACAGTTATAAAAAATAA [CACACA_site2856]”, 8.31 ± 0.42; to “CATTTAAGACAAATTACACACGTATGCCAAATATAT [CACACA_site431]”, 8.83 ± 0.54.
Then TTTTTAATTTCAATGGTGCAGTAATAATATAATAGT, with 9.31 ± 0.35.
On to “ATATTTTTTTTTGTTAGTACTCATATTTGTAGTTTT [XGTACX_site7280]”, for which the “gcPBM binding intensity (ln)” value worked out at 8.8 ± 0.46.
Then “AATATATATAATTATAGTACAGAAAATTAAAAAAGA [XGTACX_site2943]”, with 8.88 ± 0.32; and “TAGATTTTTTAATGTTGTACAAATATACGATATATA [XGTACX_site3258]”, with 8.57 ± 0.3; and “TTGTTTCTCTTTAAAAGTACAAAAATGGTTACATAT [XGTACX_site3109]”, with 8.46 ± 0.25.
To “ACATCAAGCAGACACACACACACACGCACACGCACA [CACACA_site6309]” belongs 8.65 ± 0.52; to “ACTATTCATGCATATACACACACATATATATATATT [CACACA_site9309]”, 9.11 ± 0.4; to “TATATATATATATATATATATATATATATATGTTGT [TGCATGCA_negctrl_site24]”, 10 ± 0.49.
To “ACTTTAAACAAAAAAAGTACTCTTTAATGAATATAT [XGTACX_site7176]” belongs 8.35 ± 0.4; to “CAATTTCTCTTAATTTGTACATATATGTTATACAAA [XGTACX_site3231]”, 8.61 ± 0.3; to “CAATATTTTATTTAAGCATGCTCTAGGGTGTAAAAG [TGCATGCA_site1001]”, 8.72 ± 0.43.
CTCAACAAAATATGAGTGCATTGTTATTACATATAT: the “gcPBM binding intensity (ln)” value stood at 8.68 ± 0.23.
To “AACATTAAAAGGGATACACACATATAAATAAATAAT [CACACA_site489]” belongs 8.85 ± 0.44.
As for “TAGATATATAATTTTTGTACGTAGTCGAATCTCAGA [XGTACX_site765]”, the “gcPBM binding intensity (ln)” value was found to be 8.43 ± 0.34.
As to “TTATATATTTCTACTCATATTACAATGTGAGAAATA [CACACA_negctrl_site873]”, the “gcPBM binding intensity (ln)” value amounted to 8.2 ± 0.38.
As to “AAATATATATAAAAGTGTACATTTGTTATAATCAGT [XGTACX_site4822]”, the “gcPBM binding intensity (ln)” value came to 8.79 ± 0.35.
For the sequence “CCAACTAAAAAGGAATGTACATAGTTATGGTTGGAA [XGTACX_site8762]”, the “gcPBM binding intensity (ln)” value turned out to be 9.04 ± 0.47.
“ATCAAAAAAAAAAAAAGTACACAAAATTTTTTATTA [XGTACX_site7986]”: the “gcPBM binding intensity (ln)” value stood at 8.45 ± 0.22.
Then ATAATGAACAAAGTAGTGCACTTTCCTTATCTTTTC, with 8.94 ± 0.15.
Turning to “AAGGTTTAAAATTACTGTACAAATATAAATAAATAT [XGTACX_site3756]”, the “gcPBM binding intensity (ln)” value worked out at 8.58 ± 0.35.
Then “TATATGTGTGTTATATGTACTTATATATATATATAT [XGTACX_site5570]”, with 10.1 ± 0.37; and “TACATATTTAAATACTGTACTCAAAAGAATTGTGCA [XGTACX_site2250]”, with 8.72 ± 0.2.
Then “ACTAATATGTATATATATATATATATATATATATAT [CACACA_negctrl_site141]”, with 9.96 ± 0.67; and “TATATTATACTAAGAAGTACAATATTTTTATTGTAA [XGTACX_site2810]”, with 8.06 ± 0.085; and “AAATTCCACGAACACACACACATATAAATAAATAAA [CACACA_site6697]”, with 8.59 ± 0.53.
Then “TAGTAAAAACCAAAATGTACATGTGCCATTTTTTTA [XGTACX_site2630]”, with 8.41 ± 0.35.
On to “TATAGTATTCTAAATGCATGTAAATTATGTATATAT [TGCATGCA_site931]”, for which the “gcPBM binding intensity (ln)” value was found to be 8.96 ± 0.42.
Then “GTTTATCACAGCCACGCACACATAATATCTGTATAT [CACACA_site5929]”, with 8.77 ± 0.37; and “GATTATTAATAGTAACGTACATATGTTATAAAATAT [XGTACX_site5277]”, with 8.72 ± 0.38.
On to “CTTATATTGTACAGTACACACCTTTATAATGTTATT [CACACA_site4280]”, for which the “gcPBM binding intensity (ln)” value came out at 8.93 ± 0.35.
To “TAATTTTTCCTTTTTGCACACATTAACGTCGACGAA [CACACA_site4025]” belongs 8.77 ± 0.27.
For the sequence “CAATTTATTTTTATTACACACTATCCAAATAATTTC [CACACA_site2956]”, the “gcPBM binding intensity (ln)” value was 8.5 ± 0.38.
Then “AGCATACATATTTTTTGTACATATATATATATATAT [XGTACX_site8536]”, with 10.2 ± 0.28.
To “TTAAACAATTTAGACATACACACAAAAATAATATTA [CACACA_site385]” belongs 8.51 ± 0.41; to “AACATACGACAATACGCACACATATATGTACATATT [CACACA_site1917]”, 8.78 ± 0.3.
“TATATAATAATTTAGAGTACTGATAAAATATTCCAT [XGTACX_site6200]”: the “gcPBM binding intensity (ln)” value worked out at 8.34 ± 0.3.
Then “CCATAAAATCATAAGCGTACTTAATATATTTTACTT [XGTACX_site559]”, with 8.59 ± 0.32.
To TGCTCCTATTATATAGTGCATTTATTTTAATAAACG belongs 8.39 ± 0.24.
To “TAATTTATAAAAAATTGTACATTAAACATATATATA [XGTACX_site5164]” belongs 8.45 ± 0.4.
Turning to “AACCTTACACAAGGGGTGCAATATTATTTCGATAAA [GTGCAC_site9600]”, the “gcPBM binding intensity (ln)” value came out at 9.21 ± 0.69.
To “TCTTTTCGTTCATGCTGTACTTAATTGCTCTAATTT [XGTACX_site4816]” belongs 9.11 ± 0.52; to “AAAAAAAAAAAAAGCACACACACATATGTGTATATA [CACACA_site8225]”, 8.4 ± 0.36; to CCCTGCCTCTCTTTGGTGCGTTGTAACCCTCGAGGA, 8.84 ± 0.46.
Then “TGTCTGTGCGGGTGTACACATTTCATATTACCCAAT [CACACA_site5593]”, with 9.11 ± 0.39; and “TAAATTGTATATGAGACTATACTATAAAAGTATGAA [XGTACX_negctrl_site22]”, with 8.26 ± 0.42.
Then “AATTAGATACTAACAAGTACATATATATATATATAT [XGTACX_site2252]”, with 10.2 ± 0.26; and “ATTTTTTTTTGTGTATATAAATAAATAAATATATAT [GTGCAC_negctrl_site603]”, with 8.3 ± 0.37.
Consider “ATTTAGATTAACACTTGTACATAATACATACAAATA [XGTACX_site4147]”, for which the “gcPBM binding intensity (ln)” value stood at 8.37 ± 0.32.
Then “TTGTAATTATTAAACACACACAAAATATCTAGAATA [CACACA_site7231]”, with 8.69 ± 0.46.
Turning to “TTTCCCTAATGAAAGTGTACCTGTGAGAAAAAAAAG [XGTACX_site194]”, the “gcPBM binding intensity (ln)” value was 8.7 ± 0.4.
For the sequence “AAAAGAAAAGAGAGGAGTACAAAATATAATTATCTA [XGTACX_site5172]”, the “gcPBM binding intensity (ln)” value was determined as 8.68 ± 0.49.
As to “CATATTGGTATGCTCATGCACTTTTATTTTGTTATT [GTGCAC_site9553]”, the “gcPBM binding intensity (ln)” value stood at 8.79 ± 0.38.
To “AAAAAAAAAAAAAGAACACACACAGTGCACATTCGG [CACACA_site8163]” belongs 8.82 ± 0.3; to “TGTATATATTAATGTACACACATGCGTATGTTCGTT [CACACA_site3583]”, 8.72 ± 0.32.
As for TTATTTATTTATATAGTGCAATAAACACATAAATAG, the “gcPBM binding intensity (ln)” value was determined as 8.57 ± 0.014.
To “TATAAATAATAAAGATGTACTTTTTATGATTCCTAC [XGTACX_site7003]” belongs 8.51 ± 0.29.
